The list shows a part of the results. At the low end of the ranking the order means little.
target: T1, GST-Rok (full length) (UniProt O34857); test: protein binding microarray; conditions: Rok is a gene silencer of Bacillus subtilis; high values mean tight binding; most listed sequences are background and not binding sites; double strand, one strand shown;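 also: rank score from −0.5 (least bound) to 0.5 (best bound)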
T1 sequence: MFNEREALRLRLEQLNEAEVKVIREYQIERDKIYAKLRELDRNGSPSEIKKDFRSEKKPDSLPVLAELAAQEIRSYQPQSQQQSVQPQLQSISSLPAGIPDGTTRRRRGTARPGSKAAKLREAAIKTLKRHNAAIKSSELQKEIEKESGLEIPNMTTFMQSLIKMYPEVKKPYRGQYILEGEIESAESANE

| Sequence | binding signal |
| --- | --- |
| AAATTCTA | 0.402 E-score |
| AATGAAGC | -0.0835 E-score |
| CATCACTC | 0.0678 E-score |
| GAGGTTGC | -0.0928 E-score |
| TAACCATA | 0.115 E-score |
| AAAGACGT | -0.0127 E-score |
| GTCGCCTA | -0.0954 E-score |
| CACGGTGG | -0.193 E-score |
| AATATTTA | 0.325 E-score |
| CACCTTAC | 0.0353 E-score |
| CTGACTAA | 0.009 E-score |
| AAGTCTTG | -0.119 E-score |
| AAGATAGA | 0.175 E-score |
| CAAGGGCG | -0.301 E-score |
| ATCGTGTG | -0.0227 E-score |
| CCTCGCCG | -0.322 E-score |
| AGAAAGAC | -0.0288 E-score |
| CTCCGTGC | -0.149 E-score |
| CGTATGGC | -0.145 E-score |
| AGTCATAC | 0.018 E-score |
| TCGTCAAA | -0.0353 E-score |
| CGCGCTCC | -0.232 E-score |
| CGTCACAA | -0.0647 E-score |
| CCTTTACC | -0.217 E-score |
| CGTCTCAA | -0.0469 E-score |

| Sequence | binding signal |
| --- | --- |
| AGATGAAT | 0.225 E-score |
| AGCATCCC | -0.18 E-score |
| GGTAGAGA | 0.0752 E-score |
| AACGAAAT | 0.331 E-score |
| CCATTCCG | -0.00915 E-score |
| GAACCCAA | -0.176 E-score |
| GAACGGTA | 0.255 E-score |
| AGGTTTAA | 0.00862 E-score |
| GCTCCCCA | -0.366 E-score |
| ATGCAAAA | 0.086 E-score |
| CACTAATA | 0.277 E-score |
| ATAATAGG | 0.167 E-score |
| ATCTATGA | 0.178 E-score |
| AATCCTTC | -0.167 E-score |
| GACCGACA | -0.0167 E-score |
| GCAGGAGA | -0.192 E-score |
| GAAGATAA | 0.117 E-score |
| AACTACAG | 0.337 E-score |
| CTGCAGCA | 0.213 E-score |
| CGATTTCC | -0.0112 E-score |
| AAGATTAT | 0.289 E-score |
| ACGCGGCC | -0.24 E-score |
| AAGGCTAT | -0.199 E-score |
| AAAGATGC | -0.0831 E-score |
| GCTTTCTA | 0.224 E-score |

| Sequence | binding signal |
| --- | --- |
| GTCACTAA | -0.0154 E-score |
| AAACGCAG | -0.146 E-score |
| ATCCTGAC | -0.142 E-score |
| GGGATCAA | 0.0221 E-score |
| CAGCGTCA | -0.205 E-score |
| TAACAGTA | 0.355 E-score |
| CCCCCAGC | -0.422 E-score |
| CTAAAGCA | -0.0104 E-score |
| ACCTGCGT | -0.189 E-score |
| AGCATGGC | -0.327 E-score |
| AAACCGGC | -0.0499 E-score |
| CGCAACCG | -0.092 E-score |
| ATGTAGCA | 0.233 E-score |
| TACTCCTA | 0.126 E-score |
| ACGTCCGA | -0.0091 E-score |
| TAAGGAGA | -0.0803 E-score |
| CACGCCGA | -0.14 E-score |
| TAGGAGCA | -0.0731 E-score |
| CCTGCCCG | -0.33 E-score |
| AAAGGCGA | -0.11 E-score |
| GGTCCTAA | -0.0696 E-score |
| AAGCCTCG | -0.187 E-score |
| AAACGTGC | 0.127 E-score |
| AGCCCCAC | -0.388 E-score |
| AACGAATC | 0.137 E-score |

| Sequence | binding signal |
| --- | --- |
| GGTTTTAC | 0.16 E-score |
| CTACGTAC | 0.231 E-score |
| AAGGGAAC | -0.093 E-score |
| CCGAAGCG | -0.105 E-score |
| ATGACAAG | 0.0668 E-score |
| ACCCAATA | 0.213 E-score |
| GAGTCCGC | -0.132 E-score |
| AGTTCCGC | -0.0507 E-score |
| GACTGGTA | 0.199 E-score |
| GACAAGCC | -0.225 E-score |
| GTGGGACA | -0.0885 E-score |
| AGTTGCTC | 0.000305 E-score |
| ATCGAAAG | -0.178 E-score |
| ATTCAGTC | -0.00892 E-score |
| AACTGCGC | -0.145 E-score |
| TAAATATA | 0.394 E-score |
| CGTGGGAA | -0.173 E-score |
| GACTTGGA | -0.00876 E-score |
| TTCGGCAA | 0.0314 E-score |
| GGAAAGCC | -0.374 E-score |
| AAATCCCT | -0.15 E-score |
| AAGAAACA | 0.223 E-score |
| CGCTCACA | -0.126 E-score |
| AATCAACC | -0.107 E-score |
| ACCCTGAT | -0.101 E-score |

| Sequence | binding signal |
| --- | --- |
| CTGTATTC | -0.166 E-score |
| GTTCTAAA | 0.0339 E-score |
| GCACTAGA | 0.0932 E-score |
| ATGCAGAA | 0.23 E-score |
| CCACGACA | -0.123 E-score |
| TCACCGGA | -0.108 E-score |
| GACCAGTA | 0.0441 E-score |
| ACCAAATG | 0.056 E-score |
| AGAATCGG | 0.137 E-score |
| CTAGGACA | 0.0648 E-score |
| ACAGAAGT | 0.256 E-score |
| AGGGATAT | 0.0895 E-score |
| CCGAACTA | 0.282 E-score |
| TAAATGGA | 0.119 E-score |
| GCATGCAA | -0.0106 E-score |
| ACGGATAC | -0.0801 E-score |
| AGGCCGGA | -0.156 E-score |
| GGCGTAAA | 0.0698 E-score |
| ATACAGCC | -0.206 E-score |
| GAAGTAAC | 0.0804 E-score |
| CATTAAAC | -0.0768 E-score |
| CTGGCCAA | -0.218 E-score |
| ACCTACCG | 0.169 E-score |
| ATTAGCTG | 0.209 E-score |
| AAAACGAT | 0.0449 E-score |

| Sequence | binding signal |
| --- | --- |
| CGTCTCGA | -0.22 E-score |
| AAGTTCTC | -0.0181 E-score |
| TAATTCGA | 0.133 E-score |
| AGCGAGTG | -0.0883 E-score |
| GAGTAAAA | 0.218 E-score |
| CGCTAGGC | -0.229 E-score |
| GACTCTGC | -0.222 E-score |
| GCCAGTAA | -0.224 E-score |
| GTTAGTAA | 0.272 E-score |
| ATCCACGA | 0.114 E-score |
| CCAAGTGA | -0.0973 E-score |
| CAGTGATA | 0.201 E-score |
| TCACCCGA | -0.192 E-score |
| CTCGAAAA | 0.0714 E-score |
| ACAATAGG | 0.215 E-score |
| ATTTTGAG | 0.155 E-score |
| GAAAACCC | -0.322 E-score |
| ACCTAACC | -0.0826 E-score |
| CTTTTGTA | 0.222 E-score |
| CAGAATAC | 0.04 E-score |
| CAAAGTGG | -0.0503 E-score |
| CCCGACCC | -0.344 E-score |
| CTGCTGGC | -0.24 E-score |
| GAGCGCAA | -0.142 E-score |
| GTTATAGA | 0.11 E-score |

| Sequence | binding signal |
| --- | --- |
| CTAAATCA | 0.0987 E-score |
| GACAGCAC | -0.051 E-score |
| CTGGGTTC | -0.0092 E-score |
| GAAGCCAC | -0.149 E-score |
| AAACGGTT | 0.0553 E-score |
| GTATGCGA | -0.0103 E-score |
| CAGTAGCC | 0.0096 E-score |
| CTACGACA | 0.137 E-score |
| CCGACAAA | -0.149 E-score |
| AGGGTCAG | -0.126 E-score |
| CAACGCTC | -0.322 E-score |
| GGGGAAAC | -0.0869 E-score |
| GCGCCCAA | -0.217 E-score |
| CCTGGTTC | -0.322 E-score |
| ACCACGTC | -0.22 E-score |
| CGTCAGGC | -0.107 E-score |
| ACTTCTGG | -0.00484 E-score |
| AGGTACAG | 0.118 E-score |
| CATCAGCC | -0.239 E-score |
| AGACCTAC | -0.174 E-score |
| CCTCTAGC | -0.192 E-score |
| CTGAGACC | -0.26 E-score |

From paper PMC6212790
